Laboratory results reported in the supplement of paper PMC5499739.
The full ranking holds about 16,000 sequences; the median of “Z-score” is about -0.37, and the highest 2% start at about 3.2. The list shows a part of the results.

test system: RBM10 RRM1-ZnF (GST-tagged construct); assay: RNAcompete 7-mer binding Z-score; higher = stronger binding preference
How it was run: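 A designed pool of 241 399 RNAs, each up to 41 nt and transcribed from microarray-derived DNA templates, was used at 1.5 nmol with 20 pmol of GST-tagged RBM10 constructs. The mixture, in 1 ml Hepes pH 7.8 buffer with KCl, NaCl, glycerol, DTT, BSA and glutathione Sepharose beads, was held 30 min at 4°C and then washed four times for 2 min at 4°C. Bound RNA was read out by microarray hybridisation, and enrichment of each heptamer motif was scored as a one-sided Z-score over the probes carrying it.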

Sequence | RNAcompete 7-mer binding Z-score
UUCAAUA | -0.522
UAUCUGC | -0.756
ACAGUCG | -0.363
ACCCUGG | -0.022
CGGUCGA | 0.03
CUCUAGA | -0.629
CCCCACG | 0.00729
UCUUCCG | -0.737
GAAGGAA | 4.56
UGUCCCU | -0.623
CGCAGUU | -0.344
CGUACUU | -0.802
AAAGACA | 0.0138
GAGUGUG | 1.86
CCAUGUC | -0.808
AUAAUCA | -0.47
AUUUCCG | -0.782
GCUAGCC | -0.604
UAUAGCU | -0.529
CGGGAUU | 1.53
UAAACUA | -0.483
GAUAUAC | -0.249
UUUAUCG | -0.655
AGCAGUC | -0.415
UGAACAC | -0.347

Sequence | RNAcompete 7-mer binding Z-score
CUUUAAG | -0.763
UUUUAAA | -0.652
CUGAGUG | 0.293
GUGCUUG | -0.0804
CAUUCGG | -0.36
GCGUAUG | 0.186
AUCGGCC | -0.62
UAGACGA | 0.241
AAGAUCC | -0.561
GACAUCA | -0.422
CGUAGUG | 0.121
UAGGGAG | 3.25
GAGGCUC | -0.0967
AGUCCAC | -0.594
UGUUCCU | -0.815
CUCACUG | -0.61
GACGUGG | 1.98
UGCUGGU | 0.261
GUGAGGC | 1.53
UUGCCAU | -0.902
UAACUGA | -0.295
AAGACUU | -0.464
ACAAUGA | -0.353
GUCUAAA | -0.522
CUCGAAA | -0.431

Sequence | RNAcompete 7-mer binding Z-score
GGUGGCU | 1.12
AGAGGUC | -0.123
AACAGAG | 0.768
CAGUCCC | -0.681
AACCGUU | -0.811
UGGUGGC | 1.8
ACGACAA | -0.288
AGAUUAC | -0.516
UAUUUGA | -0.353
GCGCGGC | 0.927
GAUCCAU | -0.821
CUUCCUU | -0.756
AGUGCGC | 0.407
UAUGUAG | 0.374
GCCCAAC | -0.578
UGCGCCC | -0.448
UGAGAUG | 0.803
CGUACAA | -0.448
UUGCAUC | -0.655
GCAAGUA | -0.103
CCUCUCG | -0.633
AGAGAUA | 0.384
ACUCAUG | -0.655
GAAGAUC | 0.0235
CCGGCAG | -0.184

Sequence | RNAcompete 7-mer binding Z-score
AUAACUA | -0.48
GUCGUAA | -0.214
CAACAGC | -0.467
AAUGCCA | -0.457
UACGUUU | -0.763
UGGAUAG | 2.48
GAAGACG | 1.09
AAUGACG | 0.166
GCCUUUG | -0.727
CCCUGGC | -0.113
ACUGGCU | -0.292
GAGAUCA | 0.0138
AACCCCC | -0.171
GGGCGAC | 1.81
UCGGCCU | -0.678
GCGGGAG | 2.86
UCGACCG | -0.545
CAGCAGG | 0.794
UGUUGAC | -0.314
CUACAUC | -0.811
AUGGUUA | 2.05
CUUUGCC | -0.98
CGGGGCA | 2.4
AUGCGUU | -0.405
AGACCCU | -1.07

Sequence | RNAcompete 7-mer binding Z-score
GAUUGGA | 2.24
CGUGUGA | 0.0365
CAUCAGU | -0.357
GUGAACG | 1.38
AUUUGUU | -0.568
ACAGAAG | 0.595
CCGCGUA | -0.568
AUGUGGU | 1.52
GACACUC | -0.623
CUGCGUG | -0.337
CCUCAUU | -0.915
GAGACGA | 0.517
CCUCUUC | -0.785
UACUGCC | -0.659
AGAGACU | -0.545
UUUAUAC | -0.756
UUUCCGC | -0.824
GUUGUAU | -0.0317
AUAUGUU | -0.405
UUCACUC | -0.707
CCUUAUC | -0.899
UAAGUAU | -0.389
AUUCGAU | -0.581
UCUGCAU | -0.893
GCCUAUG | -0.37

Sequence | RNAcompete 7-mer binding Z-score
AACCGCA | -0.74
GACAUGU | -0.0642
GCGGCAC | 0.413
GCACCUG | -0.353
GUACAUA | -0.301
UGUGAAC | 0.257
GGCACAA | 0.0723
GGGCCAC | 0.144
GCUUAAA | -0.597
CAACGCU | -0.636
GCUGCGA | -0.0934
AUGUUAA | -0.448
CGAAUCU | -0.88
GACAUUU | -0.759
GGUCACU | 0.0398
AGUUCAA | -0.334
GCACCCA | -0.49
ACAUAUG | -0.139
UCCCUGU | -0.763
CCAUCUU | -0.912
GGAAUCU | -0.149
AAUUAGG | 1.37
ACGUUAC | -0.324
UAUUUAA | -0.607
CGGUACG | 0.508

Sequence | RNAcompete 7-mer binding Z-score
UUGCACU | -0.639
CUGAGAA | -0.412
CUUCUAC | -0.841
GAGGAAU | 1.58
UGGACCA | -0.0512
CUAAAGU | -0.539
GGCCGGA | 0.693
GGAGGCA | 2.31
GGGUCUC | 0.969
AAUGGAC | 2.03
UAGGUCA | 0.335
GGUCGCA | 0.358
AGACUCU | -0.941
CUCGGUC | -0.558
GUUACGA | 0.0983
ACGUCCU | -0.779
AUAAAGC | -0.48
UGGUUAU | 0.735
CACGAGC | -0.106
CGACCGA | -0.519
AAAGUAG | 0.491
CCGGUGC | -0.236
CAAUAGC | -0.451
UUCGCCA | -0.591
CAAUCAC | -0.646

Sequence | RNAcompete 7-mer binding Z-score
GCCGUCG | -0.0739
ACUUCGC | -0.782
CAACCAA | -0.542
UGCACCA | -0.545
CGCGCCA | -0.337
CUGUCUG | -0.766
GUUUUAC | -0.591
CGGUUAG | 0.881
AGAGCCG | -0.714
CCUAGGC | -0.558
GUUCUUA | -0.785
AUCAGAC | -0.337
CACAGCG | -0.262
UGGCUUA | -0.337
CGGUUGU | 0.313
GAGACCC | -0.435
CACGAUG | -0.178
CCCGCAU | -0.516
UCAUAAU | -0.876
CGCCGGG | 0.134
UCUAUAG | -0.467
UCGCUUU | -0.873
CUCCCAU | -0.701
AGCUUAG | -0.288
GACGUGU | 0.293

Sequence | RNAcompete 7-mer binding Z-score
UCAGGAA | 0.738
UCGGCCA | -0.558
CGAGCAU | -0.337
UGGAACG | 2.13
AAAAUCG | -0.35
CUGCUAA | -0.789
AAAUUAC | -0.665
AUUUAAA | -0.633
GGUUGCC | 0.55
CCCGACU | -0.6
ACCAAAU | -0.552
UGGAUGU | 1.68
UGGUUGU | 1.67
UUAAACA | -0.529
GGGCUAU | 0.849
AAUUCUC | -0.594
CCAGAGA | -0.0447
ACUUAAU | -0.798
GCAGCCU | -0.529
AUAUUUU | -0.932
GCCCUGC | -0.513
GUCAGGA | 1.01
AUGACAG | 0.413
ACUAGAG | -0.0382
CUAUAAC | -0.811

Sequence | RNAcompete 7-mer binding Z-score
ACGGAGG | 2.5
GGAGCCA | 0.475
AUGGACA | 1.95
GCCAUUC | -0.912
CUCAGAG | -0.23
GCAGCUG | -0.0512
CCUGGAC | -0.347
AUCUCAU | -0.841
GUGUUGC | 0.264
AUGGCGU | 0.462
GUCGGAU | 0.524
CUGGUAA | 0.186
UUUUAUA | -0.707
ACCAGCA | -0.591
CUCCAGG | -0.11
GGCAGUU | 0.082
GGGGGUU | 3.67
AGCGGUA | 1.3
AAUAAAU | -0.402
CUUUCUG | -0.834
GGGGGCA | 2.92
UGCAACU | -0.422
UGACUCU | -0.568
GGACUAA | 0.371
GGUACCG | 0.452

Sequence | RNAcompete 7-mer binding Z-score
GACUCCC | -0.574
UGGUACC | 0.407
AUAAGAC | -0.207
AGCCUUA | -0.789
GGAUCCU | -0.266
GUGAUGG | 2.71
CUCCAUG | -0.451
CUUCAGG | -0.236
UAUAGUU | -0.223
CUCCUAC | -0.711
AAAUUCU | -0.633
UGCGAGA | 0.121
UCGCCAA | -0.629
UUCGGCC | -0.789
AACUUCC | -0.919
GCGAACU | -0.48
GAGAGCG | 1.28
UGUAGCU | -0.301
UAUUGAC | -0.737
CUGCCGU | -0.659
UAGGAAC | 1.32
UGGCAUU | -0.223
UCCCACC | -0.249
CGAAACU | -0.597
UCUCAAG | -0.532

Sequence | RNAcompete 7-mer binding Z-score
UUGGAGU | 1.4
CUCUUUC | -0.857
ACGCAAU | -0.474
CUUACGG | -0.178
UGGUAUG | 1.71
AUCUCAG | -0.435
CGGAAAA | 0.654
ACGAUGU | -0.035
CGCCUCC | -0.545
GGAAAGA | 2.41
UGCUAAC | -0.584
UUAGACC | -0.649
AAGUAGC | -0.0512
UCUAUAA | -0.681
GCGGUGA | 1.2
AUGAGCG | 0.842
AUUACGU | -0.415
ACUUAAA | -0.636
GCAGAUC | -0.129
AUCGAAA | -0.37
AUAAUGC | -0.623
GUUCCUC | -0.698
GCGUGAC | -0.0999
CCAUCGA | -0.597
AGAAAAU | -0.0447

Sequence | RNAcompete 7-mer binding Z-score
UAUCAUG | -0.357
GAGACAG | 0.901
CAUUCAU | -0.756
UGUUCUA | -0.756
GUGUGUA | 0.81
UGGCUUU | -0.522
AGGUGUA | 1.74
GUGGACC | 0.82
GACAGUC | -0.574
AGGGCGC | 1.01
CUAACCG | -0.837
UUAUGAC | -0.383
AAGCACU | -0.47
AGAAUGU | 0.235
AGUGUAG | 1.34
GCGGACG | 1.28
AUUUUCG | -0.87
UACGCGA | -0.126
UGCAACC | -0.62
AAUGAGG | 1.71
CCCUAGG | 0.365
CACUCCA | -0.753
CAAUAUA | -0.617
UAUCAUC | -0.675
GGUGCAC | 0.813

Sequence | RNAcompete 7-mer binding Z-score
GCUGUGU | -0.347
AUUUGAU | -0.363
AGCCCGC | -0.181
UACCGGU | -0.285
UACGUGA | -0.188
AAGUUGA | 0.634
GCAGCAC | -0.415
AACCCCA | -0.483
GGGGAAC | 2.42
UCAGAUC | -0.604
ACGCAGC | -0.652
ACUCGAU | -0.688
GAAUGGG | 4.76
GCCCCAG | -0.149
GCUCAAC | -0.6
GUGCUUA | -0.318
UGAUCAU | -0.574
UAACAUG | -0.175
AUACGCC | -0.678
CAUCGUA | -0.535
GGAAUUA | 1.04
AUCUGCC | -0.889
AAUGAAU | -0.201
GGUACCU | 0.0755
UAAGAGC | -0.21

Sequence | RNAcompete 7-mer binding Z-score
ACGGCUA | -0.357
ACUAGCG | -0.269
AUCGGCA | -0.181
GGCGAGC | 1.64
CCGUGAC | -0.409
AAGGGGG | 4.31
AGUCAGU | 0.0105
GGGCCUG | 0.436
CAAAACG | -0.119
UGCCGUU | -0.685
GUAGUGG | 2.22
CAUUCCG | -0.837
UAUCUAC | -0.506
AUUUGGU | 0.634
AAUUCCU | -0.785
UGGUGUA | 1.52
AACCAUC | -0.763
